# Laboratory results taken from publication PMC9663165.
# Chains of the proteins cited; added tags and fusions are not shown. Lines headed by an entry give the natural chain unless they say otherwise; changes in a name come on top. A line that says so, or that is headed by a name, gives the form on record, which may keep a tag or linker. Residues count along the entry.
# full-length human p75 neurotrophin receptor fused at the cytoplasmic C-terminus to GFP (P08138, residues 29-427): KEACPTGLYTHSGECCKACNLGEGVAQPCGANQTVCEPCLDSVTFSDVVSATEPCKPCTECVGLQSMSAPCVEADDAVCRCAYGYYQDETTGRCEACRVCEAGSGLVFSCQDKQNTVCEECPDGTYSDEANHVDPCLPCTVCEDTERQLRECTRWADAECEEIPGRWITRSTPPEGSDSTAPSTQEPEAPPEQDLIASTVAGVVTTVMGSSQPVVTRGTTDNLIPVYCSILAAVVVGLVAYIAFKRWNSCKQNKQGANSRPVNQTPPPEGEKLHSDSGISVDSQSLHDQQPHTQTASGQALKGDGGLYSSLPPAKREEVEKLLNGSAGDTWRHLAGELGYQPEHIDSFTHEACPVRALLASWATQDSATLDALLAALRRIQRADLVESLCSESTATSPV
# p75^NTR P150H (P08138, form named): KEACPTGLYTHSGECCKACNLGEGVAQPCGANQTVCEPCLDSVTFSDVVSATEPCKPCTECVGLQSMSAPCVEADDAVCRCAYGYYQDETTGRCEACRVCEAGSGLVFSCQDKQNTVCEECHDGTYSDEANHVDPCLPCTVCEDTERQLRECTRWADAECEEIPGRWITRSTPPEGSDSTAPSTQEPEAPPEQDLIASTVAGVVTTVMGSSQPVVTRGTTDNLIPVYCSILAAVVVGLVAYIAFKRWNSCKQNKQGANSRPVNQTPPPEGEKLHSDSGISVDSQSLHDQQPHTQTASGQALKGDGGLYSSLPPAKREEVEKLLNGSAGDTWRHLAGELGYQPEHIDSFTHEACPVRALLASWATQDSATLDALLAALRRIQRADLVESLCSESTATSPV
# p75^NTR L165K (P08138, form named): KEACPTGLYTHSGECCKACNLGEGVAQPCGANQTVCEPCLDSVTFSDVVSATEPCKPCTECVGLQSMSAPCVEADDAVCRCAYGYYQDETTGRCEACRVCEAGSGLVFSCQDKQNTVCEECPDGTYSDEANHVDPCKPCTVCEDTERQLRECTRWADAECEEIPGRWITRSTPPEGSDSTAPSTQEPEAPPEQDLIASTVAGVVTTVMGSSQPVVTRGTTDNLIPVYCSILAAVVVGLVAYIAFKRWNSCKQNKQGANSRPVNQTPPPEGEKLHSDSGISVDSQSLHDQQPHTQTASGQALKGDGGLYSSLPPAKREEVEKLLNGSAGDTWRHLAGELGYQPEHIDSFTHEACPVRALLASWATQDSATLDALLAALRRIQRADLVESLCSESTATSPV
# p75^NTR S137K (P08138, form named): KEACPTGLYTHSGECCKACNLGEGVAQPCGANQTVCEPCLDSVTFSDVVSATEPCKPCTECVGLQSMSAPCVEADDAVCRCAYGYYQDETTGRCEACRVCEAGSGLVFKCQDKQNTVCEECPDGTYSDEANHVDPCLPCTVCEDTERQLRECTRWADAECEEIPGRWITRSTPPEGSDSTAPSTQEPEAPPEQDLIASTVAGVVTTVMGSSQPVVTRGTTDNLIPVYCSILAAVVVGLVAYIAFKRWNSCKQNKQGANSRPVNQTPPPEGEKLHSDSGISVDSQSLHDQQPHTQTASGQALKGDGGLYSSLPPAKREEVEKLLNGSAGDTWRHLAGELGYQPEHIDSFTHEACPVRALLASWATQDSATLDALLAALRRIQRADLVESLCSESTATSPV
# p75^NTR L165H (P08138, form named): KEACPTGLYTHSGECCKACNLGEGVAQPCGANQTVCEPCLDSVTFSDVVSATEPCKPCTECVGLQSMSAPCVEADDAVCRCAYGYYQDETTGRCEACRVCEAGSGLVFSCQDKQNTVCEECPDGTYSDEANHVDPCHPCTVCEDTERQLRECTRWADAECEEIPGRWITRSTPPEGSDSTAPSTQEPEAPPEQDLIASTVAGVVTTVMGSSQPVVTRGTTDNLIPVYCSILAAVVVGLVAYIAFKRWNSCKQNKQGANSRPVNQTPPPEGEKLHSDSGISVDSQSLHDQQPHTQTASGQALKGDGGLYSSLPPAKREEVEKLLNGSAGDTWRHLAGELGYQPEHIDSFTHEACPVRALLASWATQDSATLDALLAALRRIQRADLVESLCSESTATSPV
# p75^NTR R182K (P08138, form named): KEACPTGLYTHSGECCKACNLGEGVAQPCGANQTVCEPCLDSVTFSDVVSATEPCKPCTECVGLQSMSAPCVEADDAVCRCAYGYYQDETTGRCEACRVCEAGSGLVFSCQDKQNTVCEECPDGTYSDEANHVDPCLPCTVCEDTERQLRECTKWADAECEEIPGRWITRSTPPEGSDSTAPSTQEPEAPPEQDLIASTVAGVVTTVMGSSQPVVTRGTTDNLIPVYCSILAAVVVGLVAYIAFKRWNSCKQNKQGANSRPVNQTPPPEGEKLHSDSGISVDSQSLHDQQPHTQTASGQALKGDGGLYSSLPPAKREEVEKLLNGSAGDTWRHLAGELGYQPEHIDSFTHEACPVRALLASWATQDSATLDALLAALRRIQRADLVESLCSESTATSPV
# p75^NTR F136K (P08138, form named): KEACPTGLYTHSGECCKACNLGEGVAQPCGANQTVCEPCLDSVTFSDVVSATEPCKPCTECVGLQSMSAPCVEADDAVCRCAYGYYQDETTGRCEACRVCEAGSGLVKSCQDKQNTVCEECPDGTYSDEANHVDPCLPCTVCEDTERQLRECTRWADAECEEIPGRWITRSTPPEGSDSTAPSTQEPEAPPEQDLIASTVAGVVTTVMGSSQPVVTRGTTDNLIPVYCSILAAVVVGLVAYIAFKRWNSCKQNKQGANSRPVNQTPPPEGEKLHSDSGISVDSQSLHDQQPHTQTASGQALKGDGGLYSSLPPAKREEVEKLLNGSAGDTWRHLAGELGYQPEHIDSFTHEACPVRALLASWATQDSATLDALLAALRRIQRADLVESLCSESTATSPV
# p75^NTR P166H (P08138, form named): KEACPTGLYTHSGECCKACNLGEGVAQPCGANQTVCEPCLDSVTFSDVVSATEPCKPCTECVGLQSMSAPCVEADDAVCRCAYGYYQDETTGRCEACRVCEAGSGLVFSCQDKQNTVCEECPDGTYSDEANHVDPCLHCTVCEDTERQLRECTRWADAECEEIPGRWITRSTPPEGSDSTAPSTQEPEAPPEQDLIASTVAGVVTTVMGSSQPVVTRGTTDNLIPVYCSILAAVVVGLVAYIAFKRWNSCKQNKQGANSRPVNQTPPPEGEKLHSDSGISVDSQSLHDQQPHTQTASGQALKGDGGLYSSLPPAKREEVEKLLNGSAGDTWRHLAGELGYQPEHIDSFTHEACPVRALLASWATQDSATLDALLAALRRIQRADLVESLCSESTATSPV
# p75^NTR F136H (P08138, form named): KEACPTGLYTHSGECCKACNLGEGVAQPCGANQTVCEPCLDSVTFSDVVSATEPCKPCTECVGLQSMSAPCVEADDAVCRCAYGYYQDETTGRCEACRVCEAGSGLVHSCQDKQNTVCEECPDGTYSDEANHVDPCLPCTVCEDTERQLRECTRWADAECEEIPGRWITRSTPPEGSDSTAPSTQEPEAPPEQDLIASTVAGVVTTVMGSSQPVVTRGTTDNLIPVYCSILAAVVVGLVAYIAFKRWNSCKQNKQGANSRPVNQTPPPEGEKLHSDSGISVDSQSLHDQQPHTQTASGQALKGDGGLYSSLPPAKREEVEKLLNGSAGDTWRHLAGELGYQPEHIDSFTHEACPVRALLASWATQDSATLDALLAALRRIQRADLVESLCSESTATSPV
# p75^NTR P166K (P08138, form named): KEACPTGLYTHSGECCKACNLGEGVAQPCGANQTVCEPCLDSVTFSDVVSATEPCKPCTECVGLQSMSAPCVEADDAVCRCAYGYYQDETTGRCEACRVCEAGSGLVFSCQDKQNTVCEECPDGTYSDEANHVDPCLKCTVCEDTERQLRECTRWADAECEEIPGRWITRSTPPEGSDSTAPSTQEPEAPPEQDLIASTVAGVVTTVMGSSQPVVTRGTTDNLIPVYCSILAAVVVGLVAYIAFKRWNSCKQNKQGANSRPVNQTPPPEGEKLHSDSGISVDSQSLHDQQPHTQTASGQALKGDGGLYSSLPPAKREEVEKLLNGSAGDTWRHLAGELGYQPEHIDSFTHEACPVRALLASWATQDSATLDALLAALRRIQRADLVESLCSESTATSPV
# p75^NTR S137H (P08138, form named): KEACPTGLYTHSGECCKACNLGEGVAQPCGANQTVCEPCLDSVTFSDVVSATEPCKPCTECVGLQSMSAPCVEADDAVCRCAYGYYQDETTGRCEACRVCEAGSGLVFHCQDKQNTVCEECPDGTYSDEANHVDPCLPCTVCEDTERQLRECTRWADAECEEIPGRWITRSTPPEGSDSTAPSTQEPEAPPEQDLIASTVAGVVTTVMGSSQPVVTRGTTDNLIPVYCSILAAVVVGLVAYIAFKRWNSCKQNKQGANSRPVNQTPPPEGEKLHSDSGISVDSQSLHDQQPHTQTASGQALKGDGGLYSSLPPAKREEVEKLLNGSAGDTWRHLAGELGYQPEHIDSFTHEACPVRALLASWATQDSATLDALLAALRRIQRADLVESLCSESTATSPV
# p75^NTR P150K (P08138, form named): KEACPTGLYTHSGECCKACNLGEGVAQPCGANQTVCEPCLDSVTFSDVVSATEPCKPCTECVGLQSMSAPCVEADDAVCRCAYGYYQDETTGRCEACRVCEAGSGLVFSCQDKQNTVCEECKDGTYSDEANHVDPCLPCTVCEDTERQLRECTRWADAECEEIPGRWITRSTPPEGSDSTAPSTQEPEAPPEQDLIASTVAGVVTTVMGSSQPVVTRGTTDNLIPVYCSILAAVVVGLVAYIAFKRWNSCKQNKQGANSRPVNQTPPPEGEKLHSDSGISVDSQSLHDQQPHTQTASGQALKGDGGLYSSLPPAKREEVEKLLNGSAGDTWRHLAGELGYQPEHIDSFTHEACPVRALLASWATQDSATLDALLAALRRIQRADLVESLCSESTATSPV
# p75^NTR R182H (P08138, form named): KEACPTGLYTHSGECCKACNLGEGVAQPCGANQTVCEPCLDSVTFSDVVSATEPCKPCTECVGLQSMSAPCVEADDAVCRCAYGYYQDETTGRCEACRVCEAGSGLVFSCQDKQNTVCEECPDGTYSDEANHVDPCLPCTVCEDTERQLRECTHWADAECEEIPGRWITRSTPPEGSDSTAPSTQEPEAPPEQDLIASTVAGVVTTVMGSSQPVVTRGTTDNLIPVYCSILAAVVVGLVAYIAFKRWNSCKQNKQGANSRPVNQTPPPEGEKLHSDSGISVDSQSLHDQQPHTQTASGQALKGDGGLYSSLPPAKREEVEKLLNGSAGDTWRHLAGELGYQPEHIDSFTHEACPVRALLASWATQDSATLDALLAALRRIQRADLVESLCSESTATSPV
# UniProt Q9Z0W1, residues 32-427: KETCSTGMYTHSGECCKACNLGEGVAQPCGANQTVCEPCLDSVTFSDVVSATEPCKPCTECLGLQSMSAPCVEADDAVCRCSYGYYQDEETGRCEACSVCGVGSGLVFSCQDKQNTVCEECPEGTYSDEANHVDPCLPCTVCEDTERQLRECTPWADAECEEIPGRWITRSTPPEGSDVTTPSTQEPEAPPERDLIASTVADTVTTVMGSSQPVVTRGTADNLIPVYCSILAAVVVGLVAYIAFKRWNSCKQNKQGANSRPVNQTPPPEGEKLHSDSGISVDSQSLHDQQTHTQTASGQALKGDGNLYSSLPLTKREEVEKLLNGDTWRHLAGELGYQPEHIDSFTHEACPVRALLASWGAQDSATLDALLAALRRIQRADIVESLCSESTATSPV
# UniProt P07174, residues 30-425: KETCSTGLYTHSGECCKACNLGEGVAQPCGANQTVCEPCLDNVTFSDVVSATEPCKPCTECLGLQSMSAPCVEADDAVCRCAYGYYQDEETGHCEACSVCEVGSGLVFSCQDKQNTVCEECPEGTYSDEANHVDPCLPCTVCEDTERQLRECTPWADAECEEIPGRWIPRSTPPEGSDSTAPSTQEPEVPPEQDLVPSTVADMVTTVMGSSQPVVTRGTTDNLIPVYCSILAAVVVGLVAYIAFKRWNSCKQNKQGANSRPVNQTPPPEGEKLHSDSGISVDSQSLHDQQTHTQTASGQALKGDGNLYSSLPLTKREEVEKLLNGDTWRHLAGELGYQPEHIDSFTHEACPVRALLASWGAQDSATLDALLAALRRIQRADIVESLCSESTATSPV
# UniProt P42081, residues 24-329: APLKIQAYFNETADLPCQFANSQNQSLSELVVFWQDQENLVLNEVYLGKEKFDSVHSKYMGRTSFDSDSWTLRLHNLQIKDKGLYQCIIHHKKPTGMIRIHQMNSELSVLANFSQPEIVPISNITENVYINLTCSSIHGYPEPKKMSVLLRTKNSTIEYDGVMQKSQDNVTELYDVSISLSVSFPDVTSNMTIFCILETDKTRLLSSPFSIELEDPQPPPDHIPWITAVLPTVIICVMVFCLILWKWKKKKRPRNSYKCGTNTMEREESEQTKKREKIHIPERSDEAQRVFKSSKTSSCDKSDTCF
# UniProt Q00609, residues 38-306: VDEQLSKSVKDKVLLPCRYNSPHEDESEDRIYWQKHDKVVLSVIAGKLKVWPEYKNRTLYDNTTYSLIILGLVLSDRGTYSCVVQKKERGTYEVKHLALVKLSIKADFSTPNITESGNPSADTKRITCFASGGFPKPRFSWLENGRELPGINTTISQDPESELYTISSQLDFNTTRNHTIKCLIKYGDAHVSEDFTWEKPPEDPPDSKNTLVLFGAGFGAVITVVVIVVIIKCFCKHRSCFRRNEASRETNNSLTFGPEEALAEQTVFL
# Results are given in words; binding and its absence hold for the method and conditions named. Some binding calls cover weakened binding; strength is not graded here.
# Key:
# [1] = biological target: human p75 neurotrophin receptor-GFP (human) (UniProt P08138); test: flow cytometry on cells; cell-cell binding of sorted stable HEK293 lines (B7-1-mCherry, B7-1N82E-mCherry, B7-2-mCherry) with GFP-tagged query cells; % cell bound
# [2] = biological target: mCTLA4-GFP (mouse) (UniProt P09793); test: as above
# [3] = biological target: mCD28-GFP (mouse) (UniProt P31041); test: as above
# [4] = biological target: full-length human p75 neurotrophin receptor fused at the cytoplasmic C-terminus to GFP (human) (UniProt P08138); test: flow cytometry on cells; B7-1–Fc or B7-1N82E–Fc titrated against cells expressing CTLA-4, CD28 or p75NTR; only the binder purified
# [5] = biological target: p75^NTR P150H (human) (UniProt P08138); test: flow cytometry on cells; cell-cell conjugates, salt bridge suppressor screen: cells expressing p75NTR lysine or histidine mutants against cells expressing B7-1 D/E mutants or WT B7-1
# [6] = biological target: p75^NTR L165K (human) (UniProt P08138); test: as above
# [7] = biological target: p75^NTR S137K (human) (UniProt P08138); test: as above
# [8] = biological target: p75^NTR L165H (human) (UniProt P08138); test: as above
# [9] = biological target: p75^NTR R182K (human) (UniProt P08138); test: as above
# [10] = biological target: p75^NTR F136K (human) (UniProt P08138); test: as above
# [11] = biological target: p75^NTR P166H (human) (UniProt P08138); test: as above
# [12] = biological target: p75^NTR F136H (human) (UniProt P08138); test: as above
# [13] = biological target: p75^NTR P166K (human) (UniProt P08138); test: as above
# [14] = biological target: p75^NTR S137H (human) (UniProt P08138); test: as above
# [15] = biological target: p75^NTR P150K (human) (UniProt P08138); test: as above
# [16] = biological target: p75^NTR R182H (human) (UniProt P08138); test: as above
# [17] = biological target: human p75 neurotrophin receptor-GFP (human) (UniProt P08138); test: flow cytometry on cells; 750 nM hB7-1-Fc incubated with p75NTR-expressing cells alone or with 750 nM, 2 uM or 10 uM abatacept or Ig control; geoMean 647; only the binder purified
# [18] = biological target: protein tyrosine phosphatase receptor type F-GFP (human) (UniProt P10586); test: flow cytometry on cells; high-throughput cell-cell screen: HEK293F query cells (C-terminal mCherry fusion) mixed 1:1 in 96-well format with cells each expressing one member of the Ig/TNFR superfamily library (C-terminal GFP); double-positive events as % bound; PBS 0.2% BSA, pH 7.4
# [19] = biological target: human B7-1-mCherry fusion protein (human) (UniProt P33681); test: as above
# [20] = biological target: full-length human p75 neurotrophin receptor fused at the cytoplasmic C-terminus to GFP (human) (UniProt P08138); test: flow cytometry on cells; cell-cell conjugates: cells expressing B7-1–mCherry of various mammalian species against cells expressing human, mouse or rat p75NTR-GFP
# [21] = biological target: mouse p75^NTR-GFP (mouse) (UniProt Q9Z0W1); test: as above
# [22] = biological target: rat p75^NTR-GFP (rat) (UniProt P07174); test: as above
Substance,binding [5],binding [6],binding [7],binding [8],binding [9],binding [10],binding [11],binding [12],binding [13],binding [14],binding [15],binding [16],other results
B7-1N82E-mCherry (from UniProt P33681 35-288) (ligand),,,,,,,,,,,,,binding [1]: no binding; binding [2]: binds; binding [3]: binds
B7-1N82E–Fc (from UniProt P33681 35-233) (Fc fusion),,,,,,,,,,,,,binding [4]: no binding
B7-2-mCherry (from UniProt P42081 24-329) (ligand),,,,,,,,,,,,,binding [1]: no binding; binding [2]: binds; binding [3]: binds
hB7-1 K120D–mCherry (from UniProt P33681 35-288) (ligand),no binding,no binding,no binding,no binding,no binding,no binding,no binding,no binding,no binding,no binding,no binding,no binding,
hB7-1 K127D–mCherry (from UniProt P33681 35-288) (ligand),no binding,no binding,no binding,no binding,no binding,no binding,no binding,no binding,no binding,no binding,no binding,no binding,
hB7-1 K139D–mCherry (from UniProt P33681 35-288) (ligand),no binding,no binding,no binding,no binding,no binding,no binding,no binding,no binding,no binding,no binding,no binding,no binding,
hB7-1-mIgG2A (from UniProt P33681 35-233) (Fc fusion),,,,,,,,,,,,,binding [17]: binds
human p75 neurotrophin receptor-GFP (from UniProt P08138 29-427),,,,,,,,,,,,,binding [18]: binds; binding [19]: binds
mouse B7-1–mCherry (from UniProt Q00609 38-306) (ligand),,,,,,,,,,,,,binding [20]: no binding; binding [21]: no binding; binding [22]: no binding

# Second part, led by results:
binding [5],binding [6],binding [7],binding [8],binding [9],binding [10],binding [11],binding [12],binding [13],binding [14],binding [15],binding [16],Substance,other results
no binding,no binding,no binding,no binding,no binding,no binding,no binding,no binding,no binding,no binding,no binding,no binding,hB7-1 R63D–mCherry (from UniProt P33681 35-288) (ligand),
no binding,no binding,no binding,no binding,no binding,binds,no binding,binds,no binding,no binding,no binding,no binding,hB7-1N82E–mCherry (from UniProt P33681 35-288) (ligand),
